Assay results as given in a collection of fitness landscapes (doi:10.1016/j.celrep.2020.107928).
Over roughly 81,000 sequences, “one-hybrid fitness for binding parS DNA” has its median near -0.17; the highest 2% begin near 0.51. Some of the results follow.

B1: Caulobacter ParB omega fusion; a variant is named by its letters at X, in order, B8GW30 (parent)
chain: MESVVVGEPGMSEGRRGLGRGLSALLGEVDAAPAQAPGEQLGGSREAPIEILQRNPDQPRRTFREEDLEDLSNSIREKGVLQPILVRPSPDTAGEYQIVAGERAWRAAQRAGLKTVPIMVRELDDLAVLEIGIIENVQRADLNVLEEALSYKVLMEKFERTQENIAQTIGKSXSHVANXMRLLXLPDEVQSYLVSGELTAXHARAIAAAADPVALAKQIIEGGLSVRETEALARKAPNLSAGKSKGGRPPRVKDTDTQALESDLSSVLGLDVSIDHRGSTGTLTITYATLEQLDDLCNRLTRGI

Variants of: B1
Assay: one-hybrid fitness for binding parS DNA (scaled: cognate 1, non-cognate 0); higher = stronger binding
Conditions: with parS DNA site
Method in brief: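 Pre- and post-selection plasmids were Illumina-sequenced, three replicate libraries were pooled, and any variant with under 10 reads was removed. The libraries were Caulobacter ParB with four specificity codons randomised, selected in E. coli USO through a HIS3 reporter whose site is 19 bp from the promoter. Cells grew 48 hours at 37°C on M9 without histidine, with 0.1 mM IPTG and 5 mM 3-AT. Fitness is the log change in variant-to-wild-type read ratio, rescaled against cognate and non-cognate.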

one-hybrid fitness for binding parS DNA, 1.04:
RCYG

one-hybrid fitness for binding parS DNA, 0.322:
QYWN

one-hybrid fitness for binding parS DNA, 0.988:
RQAS

one-hybrid fitness for binding parS DNA, ≤ 0.2:
GMLN
DYML
DPSD
APPW
KRLK
ASTR
PFPI
GYMG
PHVA
YLRE
ATLR
YLIA
ACSQ
IISM
KTLA
ITNC
DNTK
AWWT
YLTL
ANQT
SRWY
NSMH
LSSG
PYIG
PNTT
RGPI
SFRR
KHTR
DSRG
KDTN
RHCH
QTGQ
ADSD
ILRC
CLQA
QIPC
PHFK
SDNV
HDAL
PMPV
QTFT
TRCD
HMAT
PFDL
SYHA
LPDY
LWSP
QQPP
PLDR
STHW
EMPS
ELST
QHIK
SCFK
LSHE
AKCW
APTR
DYVR
QSMY
HYNG
ALTY
HQHS
MASY
LRQY
PRAA
LYFF
SYRI
YIDL
MSST
YLNF
HHQT
LDLA
ELHI
KCYR
MSKV
CHLT
GSAC
VGPN
PPNN
NYQR
HSWR
AHPV
VHPD
TGNT
PEHT
APPP
WPPF
STQD
PCGW
QWRW
HTDM
VTTV
QTEM
RNEI
NTRT
LTGR
VFRP
ALDY
NDQR
DHKR
FYCG
FVTD
YEPC
QTWY
QRWV
GQTF
MMHG
YAVD
GSKA
TVLA
TAGM
PICW
HTEG
DLTE
IKRG
CSCI
FATY
HGSS
CMLR
TRAV
DLSG
YAEL
TATA
YHER
PCQR
KFRI
RIKI
QRWK
RTAR
DSWC
GAMG
TQSG
TNSY
QFVS
NVSN
TLWY
VEEC
DFCS
MTAS
QQAL
IPNA
LLWF
STTD
SCLD
QLFN
TPAQ
HDTM
MAYH
ERTF
DDNR
